Measured values taken from PubChem BioAssay AID485344 (National Center for Advancing Translational Sciences (NCATS), 2010).
The campaign covered roughly 340,000 compounds. About 6,900 (2%) were called active. No stated cut-off is given here; in the data, active means inhibition above about 30%; inactive means below that, where a call was filed. This is a selection; strong and weak results do not stand in their true shares. Where no call is shown, the source filed none.
Further: 0% is about no effect.

What follows are compounds tested against D(2) dopamine receptor (Homo sapiens) (UniProt P14416) (assay: HTS Assay for Allosteric Antagonists of the Human D2 Dopamine Receptor: Primary Screen for Antagonists). Conditions: HEK293 TREx D2 cells, calcium flux, dopamine EC80; at 10 µM; stronger effect = higher value.
UniProt P14416, sequence (P14416 whole entry, looked up): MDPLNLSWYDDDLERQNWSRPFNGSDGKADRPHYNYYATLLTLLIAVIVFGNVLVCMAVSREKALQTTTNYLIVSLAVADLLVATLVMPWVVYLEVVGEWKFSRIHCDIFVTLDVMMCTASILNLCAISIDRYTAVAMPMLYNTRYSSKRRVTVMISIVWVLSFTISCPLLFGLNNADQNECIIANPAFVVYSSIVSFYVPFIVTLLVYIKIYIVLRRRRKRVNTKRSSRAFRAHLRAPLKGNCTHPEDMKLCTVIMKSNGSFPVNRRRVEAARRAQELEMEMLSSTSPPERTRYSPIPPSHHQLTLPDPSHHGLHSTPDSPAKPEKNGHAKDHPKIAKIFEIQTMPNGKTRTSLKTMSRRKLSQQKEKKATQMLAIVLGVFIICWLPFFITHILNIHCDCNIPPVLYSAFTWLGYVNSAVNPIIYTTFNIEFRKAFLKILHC
Procedure, shortened: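 Antagonism is scored as inhibition of an EC80 dopamine-evoked calcium signal in a force-coupled, tetracycline-inducible HEK293 T-REx D2 line, with compound present 180 s before agonist.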
For `Cc1ccc(-c2c(C(=O)N3CCN(c4cc(Cl)ccc4C)CC3)oc(=O)c3ccccc23)cc1`, the inhibition was 3.41%. In the case of `COc1ccc(C)cc1NC(=O)c1cc2c(=O)n(Cc3cccnc3)ccc2nc1C`, the inhibition is reported as 4.95%. With `CCc1cccc(NC(=O)Nc2cccs2)c1` the inhibition was active: 32.4%. `COc1ccc2c(c1)c1c(c(=O)n(-c3ccccc3C)c(=O)n1C)n2C` was tested, and the inhibition was 4.44%. With `CCN(CC)S(=O)(=O)c1cccc(C(=O)Nc2sc3c(c2C#N)CCC(C)C3)c1` (stereo not given) the inhibition was -6.61%. `Cc1cc(C)c(S(=O)(=O)N2CCC(N3CCN(Cc4ccccc4)C(=O)C3=O)CC2)c(C)c1` gave an inhibition of -2.01%. In the case of `CCN(CC)CCNC(=O)c1cn(CCOC)c(=O)c2c1c1ccccc1n2C`, the inhibition is reported as 4.24%. In the case of `COc1ccc(CNCc2c(C(=O)O)c(C)n(Cc3ccccc3C)c2C)c(OC)c1`, the inhibition is reported as 8.19%. `COc1ccc(-n2ncc(C(=O)N3CCN(c4cc(C)ccc4C)CC3)c2C2CCN(C(=O)OC(C)(C)C)CC2)cc1` showed an inhibition of -13.6%. `CCCCNC(=O)C1CCN(c2nc3ccccc3nc2C(F)(F)F)CC1` gave an inhibition of 6.66%. In the case of `Cc1ccc(Cl)cc1N1CCN(c2ncnc3c2nc2n3CCCCC2)CC1`, the inhibition is reported as -4.92%. `COc1ccc(Nc2cc(C)c3cc(NC(=O)Cc4ccc(Cl)cc4)ccc3n2)cc1` was tested, and the inhibition was 10.6%. `Cc1nnc(NC(=O)CSc2nccn2Cc2ccc(Cl)cc2)s1` gave an inhibition of 14.8%. `O=C(CSc1cn(CCNC(=O)c2c(F)cccc2F)c2ccccc12)Nc1ccc(F)cc1` showed an inhibition of -0.745%. Compound `CC1CCCN(Cc2nc3c(c(=O)n(C)c(=O)n3C)n2Cc2ccc(Cl)cc2)C1` (stereo not given) has an inhibition of -15.8%. Compound `O=C(Nc1cc(Cl)ccc1Cl)c1cc2nc(-c3ccc4c(c3)OCO4)cc(C(F)(F)F)n2n1` has an inhibition of -1.06%. Work on `Cn1nc(C(=O)NCc2ccccc2Cl)c2c1-c1ccccc1S(=O)(=O)C2` yielded an inhibition of 5.5%. `CSc1ccc(CNC(=O)C2CCN(c3nc4ccccc4nc3C(F)(F)F)CC2)cc1` was tested, and the inhibition was 9.46%. In the case of `Cc1cc(C)cc(NC(=O)CSc2oc(-c3ccco3)nc2S(=O)(=O)c2ccc(Cl)cc2)c1`, the inhibition is reported as 19.4%. `CCc1ccc(C(=O)N2CCC(c3nc(-c4ccc(S(=O)(=O)N5CCCC5)cc4)no3)CC2)cc1` gave an inhibition of 6.39%. `O=C(O)c1ccc(CNCc2ccccc2Cl)s1` was tested, and the inhibition was -2.84%. `O=C1C(Cl)=C(NCCN2CCOCC2)C(=O)c2ccccc21` was tested, and the inhibition was active: 36.2%. Compound `Cc1ccc(CNC(=O)CCCCCn2c(=O)c3sccc3n(CC(=O)Nc3c(C)cc(C)cc3C)c2=O)cc1` has an inhibition of -13.4%. `CCCOc1ccc(CNC(=O)CCCn2nc(C)c3sc4ccccc4c3c2=O)cc1` showed an inhibition of -13.3%. `CCCSc1ncc(Cl)c(C(=O)Nc2c(C(=O)Nc3ccc(OC)cc3)oc3ccccc23)n1` showed an inhibition of -15.8%. `COc1cc(Cl)c(C)cc1NC(=O)Cn1ncc2c1-c1cc(C)ccc1OC2` was tested, and the inhibition was -12.5%. For `Cc1cccc(CNC(=O)c2ccc3oc(=O)n(Cc4ccccc4)c3c2)c1`, the inhibition was 3.87%. In the case of `O=S(=O)(c1ccc(Br)cc1)c1nnn2c1nc(NCc1ccc3c(c1)OCO3)c1sccc12`, the inhibition is reported as 12.7%. Compound `COc1ccc(C(=O)Nc2nnc(SCc3cc(=O)n4cccc(C)c4n3)s2)cc1` has an inhibition of -5.62%. `Cc1ccc(CNC(=O)C2CCN(Cc3nc(-c4cccc(Br)c4)oc3C)CC2)cc1` gave an inhibition of 10.5%. With `CC(=O)c1cccc(NC(=O)C2CCN(S(=O)(=O)c3ccc4[nH]c(=O)ccc4c3)CC2)c1` the inhibition was -22.2%. With `CCOc1ccc(-n2c(=O)c3c4c(sc3n(CC(=O)NC(C)CC)c2=O)CCCC4)cc1` (stereo not given) the inhibition was -9.53%. `Cc1cccc(-n2c(=O)c3ccccc3n(Cc3ccccc3)c2=O)c1` gave an inhibition of -8.87%. With `Cc1ccc(-n2nc3ccc(NC(=O)COc4ccccc4)cc3n2)cc1Cl` the inhibition was -5.09%. `CCc1cc2c(cc(C(=O)OC)n2Cc2nc(-c3ccc(C)cc3)oc2C)s1` was tested, and the inhibition was 4.33%. `O=C(CSc1nc2c([nH]c3ccccc32)c(=O)n1-c1cccc(C(F)(F)F)c1)N1CCc2ccccc21` showed an inhibition of 16.3%. In the case of `CCOc1ccc(N(CC)C(=O)c2nn(-c3ccc(OC)cc3)c(=O)c3c2c2ccccc2n3C)cc1`, the inhibition is reported as -10.3%. Compound `COc1ccc(OC)c(NC(=O)c2cc(C3CC3)nc3c2c(C)nn3-c2ccc(C)cc2)c1` has an inhibition of 0.559%. Compound `COc1ccc(-c2c(C)nn3c(C(F)(F)F)cc(-c4ccccc4)nc23)cc1` has an inhibition of 6.43%. In the case of `O=C(NCc1ccco1)c1ccc2c(c1)N(Cc1c(F)cccc1Cl)C(=O)c1ccccc1S2`, the inhibition is reported as -13.4%. `O=C(Cn1cc(SCc2ccccc2F)c2ccccc21)N1CCCCC1` gave an inhibition of 5.21%. Work on `Cc1cc(C)cc(NC(=O)Cc2c(C(=O)O)c(C)cn2C)c1` yielded an inhibition of 8.04%. Work on `COc1ccc(C(=O)NCc2ccc3c(c2)CCN3C(=O)c2ccc(C)cc2)cc1` yielded an inhibition of -1.51%. `COc1ccc(Cn2ccc3nc(C)c(C(=O)N4CCN(c5ccc(OC)cc5)CC4)cc3c2=O)cc1` was tested, and the inhibition was 3.22%. With `Cc1ccc(S(=O)(=O)N(C)Cc2nc(-c3ccccc3)oc2C)cc1` the inhibition was 18.1%. `CCc1nc2nc(C)c(NS(=O)(=O)c3ccc(C)cc3)c(=O)n2[nH]1` showed an inhibition of -0.0735%. `CC1CCn2c(nc3cc(C(=O)NCc4ccc(OC(C)C)cc4)ccc32)C1` (stereo not given) showed an inhibition of -6.34%. `COc1cccc(N2CCN(C(=O)CCCCCn3c(=O)[nH]c4ccccc4c3=O)CC2)c1` was tested, and the inhibition was 21.7%. `CCC(C(=O)NC1CCC(C)CC1)n1nc(C)c2sc3ccccc3c2c1=O` (stereo not given) showed an inhibition of -10.3%. Compound `CCc1ccc(CNC(=O)c2cc3c(=O)n(Cc4cccs4)ccc3nc2C)cc1` has an inhibition of 14.7%. `COc1ccccc1CNC(=O)C1CCN(S(=O)(=O)c2ccc3c(c2)CCCN3C(C)=O)CC1` gave an inhibition of 4.98%. In the case of `CC(C)c1ccc(NC(=O)CSc2nc3ccccc3nc2Cc2ccccc2)cc1`, the inhibition is reported as -6.72%. `CCc1ccccc1NC(=O)N1CC(C)Sc2ccccc21` (stereo not given) showed an inhibition of -2.94%. Compound `CC(=O)c1ccccc1OCC(O)Cn1c(CO)nc2ccccc21` (stereo not given) has an inhibition of -14.9%. With `O=C(Nc1ccc(Br)cc1F)N1CC=C(c2c[nH]c3ccccc23)CC1` the inhibition was -21.4%. `CC(=O)c1ccc(NC(=O)c2nc(-c3ccccc3)n(-c3ccccc3)n2)cc1` was tested, and the inhibition was 9.92%. `CCCc1nn2c(=O)cc(COC(=O)c3ccc(NC(=O)C4CCCCC4)cc3)nc2s1` gave an inhibition of 3.2%. With `CC(C)Cc1nn2c(=O)cc(COC(=O)c3ccccc3NC(=O)C3CCCCC3)nc2s1` the inhibition was -8.71%. For `Fc1ccc(-c2csc(=S)[nH]2)cc1`, the inhibition was active: 31%. Compound `Cc1ccc(S(=O)(=O)NCc2nc3cccnc3n2Cc2ccccc2Cl)c(C)c1` has an inhibition of -16.6%. Compound `CCc1nnc2c(Nc3ccc(N(CC)CC)cc3C)nc3ccccc3n12` has an inhibition of -8.27%. In the case of `O=C(NCCO)C1(c2ccc(Cl)cc2)CCCC1`, the inhibition is reported as active: 32.2%. `COc1ccc(C)cc1NC(=O)c1cn(C)c(=O)c2cc(OC)c(OC)cc12` showed an inhibition of -0.172%. `COc1cccc(NS(=O)(=O)c2ccc3c(c2)N(C)C(=O)CC(=O)N3C)c1` was tested, and the inhibition was -8.69%. `COc1ccc(-c2nc(Cn3c(SCc4cccc(C(F)(F)F)c4)nc4cccnc43)c(C)o2)cc1OC` gave an inhibition of -20.2%. `COc1ccc(C(=O)c2sc3nc(-c4ccc(F)cc4)ccc3c2N)cc1` gave an inhibition of 8.72%. `Cc1oc2ncn(C)c(=O)c2c1C(=O)NCc1ccc(Cl)cc1` showed an inhibition of -2.16%. `Cn1c(Nc2ccc(Cl)cc2)cc(=O)n(C)c1=O` showed an inhibition of 6.05%. For `CC1=C(C(=O)Nc2ccc(C)cc2C)C(c2ccc(O)cc2)n2nc(SCC(=O)c3ccc(C)cc3)nc2N1` (stereo not given), the inhibition was 11.8%. Compound `COc1ccc(-c2nn3c(=O)cc(CN4CCN(S(=O)(=O)c5ccc(C)cc5)CC4)nc3s2)cc1` has an inhibition of -22.1%. For `CCCNCC1C(Oc2ccc(Cl)cc2)C(=O)N1c1ccccc1C` (stereo not given), the inhibition was active: 50.9%. With `COc1ccc(C(=O)Nc2ccc(S(=O)(=O)N(Cc3ccccc3)c3ccccc3)cc2)cc1` the inhibition was -2.37%. Work on `COc1ccc(OC)c(CNC(=O)C2CCCCN2S(=O)(=O)c2ccc(F)cc2)c1` (stereo not given) yielded an inhibition of 2.97%. `COc1ccc(CNC(=O)CN2C(=O)CCn3nc(-c4ccccc4)cc32)c(OC)c1` gave an inhibition of -3.4%. In the case of `COc1ccc(S(=O)(=O)Nc2cc3c(C(=O)OC(C)C)c(C)oc3c3ccccc23)cc1`, the inhibition is reported as -3.44%. In the case of `COc1ccc(N2C(=O)Cc3cc(OC)c(OC)cc3C2c2ccc(F)cc2)cc1` (stereo not given), the inhibition is reported as -3.11%. `Cc1cccc(Cn2cc(C(=O)Nc3cc(F)ccc3F)ccc2=O)c1` showed an inhibition of -21.7%. `COc1ccc(C(CCN2CCCC(C)C2)c2c(OC)cc(OC)c3c2OC(=O)CC3c2cc(OC)c(OC)c(OC)c2)cc1` (stereo not given) was tested, and the inhibition was active: 52%. For `COc1ccc(-c2ccc(CCC(=O)O)n2-c2ccccc2O)cc1`, the inhibition was 3.97%. `COc1ccc(NC(=O)CCc2nc3c(C)nn(-c4ccc(C)cc4)c3n(C)c2=O)cc1` was tested, and the inhibition was 1.24%. In the case of `Cc1ccc(NC(=O)C2CCN(S(=O)(=O)c3c(C)noc3/C=C/c3cccs3)CC2)cc1F`, the inhibition is reported as -12.7%. For `CCOC(=O)C1=C(CN2CCN(C(=O)c3ccco3)CC2)NC(=O)NC1c1ccc(C)cc1` (stereo not given), the inhibition was active: 36.7%. In the case of `CCCS(=O)(=O)c1c(S(=O)(=O)CCC)c2cc(CC)ccn2c1C(=O)c1ccc(Cl)cc1`, the inhibition is reported as 17.4%. In the case of `O=C(CSc1nnc(-c2cccnc2)n1Cc1ccccc1)NCc1ccccc1`, the inhibition is reported as active: 34.5%. For `COc1ccc(Cl)cc1CNCCSc1nnnn1-c1ccccc1`, the inhibition was 6.63%. For `Cc1ccc(C(=O)O)cc1NC(=O)c1cccs1`, the inhibition was active: 43.8%. In the case of `COc1ccc(C2NC(=O)N(C)C3=C2C(=O)N(c2cccc(C(=O)O)c2)C3)cc1` (stereo not given), the inhibition is reported as 25%. `O[Si](CCCN1CCCCC1)(c1ccc(F)cc1)C1CCCCC1` (stereo not given) was tested, and the inhibition was active: 124%. For `COc1ccccc1-c1cc(C(=O)Nc2cc(OC)c(OC)c(OC)c2)no1`, the inhibition was 16.4%. `CCN(CC)CCCNC(=O)c1nn(C)c2c1CSc1ccccc1-2` was tested, and the inhibition was 25.4%. In the case of `CCN(CC)c1ccc(C(=O)NCc2ccc3c(c2)CCN3C(=O)c2ccc(F)cc2)cc1`, the inhibition is reported as 12.6%. Compound `Cc1ccc(-n2nc(C)c3c(C(=O)NCCc4ccccc4)cc(C)nc32)cc1` has an inhibition of 9.96%. In the case of `Cc1ccc(CNC(=O)c2ccc3c(c2)nc2n3CCOC2)cc1`, the inhibition is reported as 0.927%. Compound `COc1ccc(Cl)cc1N(C)C(=O)c1cc2c(=O)oc3ccc(C)cc3c2s1` has an inhibition of 14.7%. `COc1ccc(Cc2nc3c4cnn(-c5ccccc5F)c4ncn3n2)cc1` showed an inhibition of 15.8%.
